The labels stand for the following.
B1: CPEB3 Ribozyme (parent)
chain: UAACAGGGGGCCACAGCAGAAGCGUUCACGUCGCAGCCCCUGUCAGAUUCUGGUGAAUCUGCGAAUUCUGCUGUAUAUCUC

The source gives no read counts; variants with many changes may rest on few reads.

The variants in the data set derive from B1. Nature of the data set: self-cleavage, relative activity (ratio to wild type); higher = more cleavage; in vitro, sequencing. A digest of the protocol:
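Barcoded CPEB3 ribozyme mutants, produced by rounds of error-prone PCR, self-cleaved while being transcribed with T7 RNA polymerase for 5 hours at 37°C and during a subsequent 15 min DNase I step before EDTA was added. Sequencing of template-switched cDNA on Illumina gave cleaved and total reads, and DNA sequencing assigned barcodes to variants. Each variant's relative activity is its cleaved/total read fraction divided by the unmutated ribozyme's fraction, averaged across three batches. A variant needed a minimum of 5 reads.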
UACCAGGGGGCCACAGCAGAAGCGCUCACGUCGCGGCCCCCGUCAGAUUCCGGUGAAUCUGCGAAUUCUGCUGUAUAUCUC: the self-cleavage was determined as 0.2.
Take UACCAGGGGGCCACAGCAGAAGCGUUCACGUCGCAGCCCCUGCCAGAUUCUGGUGGAUCUGUGAAUUCUGCUGUAUAUCUC: the self-cleavage came out at 0.39.
Consider UAGCGGGGGGCCGCAGCAGAAGCGUUCACGUCGCAGCCCCUGUCAUAUUCUGGUGAAUCUGCGAAUUCUGCUGUAUAUCUC, for which the self-cleavage was found to be 0.1.
The same measure for UAGCGGGGGGCCACAGCAGAAGCGUCCACGUCGCAGCCCCUGUCAGAUUCUGGUGAAUCUGCGAAUUCUGCUGUAUUUCUC: 0.67; for UAGCUGGGGGCCACAGCAGAAGCGUCCACGUCGCAGCCCCUGCCAGAUUCAGGUGAAUCUGCGAACUCUGCUGUAUAUCUC: 0.42.
The same measure for UAGCAGGGGGCCGCUGCAGAAGCGUUCGCGUCGCAGCCCCAGUCAGAUUCUGGUGAAUCUGCGUAUUCUGCUGUAUAUCUC: 0.06.
The same measure for UAGCGGGGGGCCACAGCAGAAGCGUUCACGUCGCAGCCCCUGACAGAUUCUGGUGAAUCUGCGAAUUCUGCAGUAUAUCUC: 0.14; for UAGCAGGGGGCCGCAGCAGAAGCGUUCGCGUCGCAGCCCCUGUCAGGUUCUGGUGAAUCUGCGAAUUAUGCUGUAUAUCAC: 0.25.
As to UACCAGGGGGCCACAGCAGAAGCGUUCACGUCGCAGCCCCUGACAGAUUCUGGUGAAUCUGCGAAUUCUGCUGUAUGUCUC, the self-cleavage stood at 1.22.
The same measure for UAGCGGGGGGCCACAGCAGAAGCGUUCACGUCGCAGCCCCCGUCAGAUUCUGGUGAAUCUGCGAAUUCUGCUGUAUAUCCC: 0.28; for UAGCGGGGAGCCUCAGCGGAAGCGUUCACGUCGCAGCCCCUGUCAGAUUCUGGUGAAUCUGCGAAUUCUGCUGUAUAUCUC: 0.69; for UAGCUGGGGGCCACAGCAGAAUCGUUCCCGCCGCAGCCCCUGUCAGAUUCUGGUGAGUCUGCGAAUUCUGCUGUAUAACUC: 0.
The same measure for UAGCUGGGGGCCACAGCAGAAGCGUCCACGUCGCAGCCCCUGCCAGAUUCUGGUGAAUCUGCGAAUUCUACUGUAUAUCUC: 0.2.
The same measure for UAGCAGGGGGCCGCAGCAGAAGCGUUCACGUCGCAGCCCCAGUCAGAUUCUGGAGAAUCUGCGAAUUGUGCUUUAUUUCUC: 0.18.
Consider UAGCUGGGGGCCACAGCAGAAGCGUUCCCGUCGCAGCCCCUGUCAGUUUCUGGUGAAUCUGCGAAUUCUGCUGUUUAUCUC, for which the self-cleavage amounted to 0.57.
The same measure for UACCAAGGGGCCACAGCAGAAGCGUUCACGUCGCAGCCCCUGUCAGAUCCUGGUGAAACUGCGAAUUCUGCAGUAUAUCUC: 0.07; for UAGCAGGGGGCCGCAGCAGAAGCGUUCACGUCGCAGCCCUUGUCAGAUUCUGGUGAAUCUGCGAAUUCUGCUGUAUAUCUC: 0.68.
With UAGCAGGGGGCCGCAGCAGAAGCGUUCACGUCGCAGCCCCUGUCAGGUCCUGGUGAAUCAGCGAAUUCUGCUGUAUAUCUC, the self-cleavage amounted to 0.41.
The same measure for UAGCAGGGGGCCGCAGCAGAAGCGUUCACGUCGCAGCCCCUGUCAGAUUCUGGUUAAUCCGCGAAUUCUGCUGUAUAUCUC: 0.13.
The same measure for UACCAGAGGGCCACAGCAGAAGCGUUCACGUCGCAGCCCCUGCCAGAUUCUGGUGAAUCUGCGAAUUCUGCUGUAUAUCUC: 0.08; for UAGCAGGGGGCCGCAGCAGAAGCGUUCACGUCGCAGCCCCUGUCGGAUUCUGGUGAAUCUGCGAAUUCUGCUGUAUAUCUC: 0.93.
The same measure for UAGCCGGGGGCCACAGCAGAAGCGUUCACGUCGCAGUCCCCGUCAGAUUCUGGUGAAUCUGCGACUACUGCUGUGUAUCUC: 0.11; for UAGCAGGGGGCCGCAGCUGAAGCGUUCACGUCACAGCCCCUGUCAGAUUAUGGUGAAUCUGCGAGUUCUGCUGUAUAUCUC: 0.06.
On to UAGCAGGGGGCCGCAGCAGAAGCGAUCACGUCGCAGCCCCUGUCAGAUUCUGGCGAAUCUGCGAAUUCUGCUGUAUAUCUC, for which the self-cleavage was determined as 0.1.
The same measure for UAGCUGGGGGCCACAGCGGAAGCGUUCACGUCGCUGCCCCAGUCAGAUUCUGGUGAAUCUGCGAAUUCUGCUAUAUAUCUC: 0.14; for UACCAGAGGGCCACAGCAGAAGCGUUCACGCUGCAGCCCCUGUCAGAUUCUGGUGAAUCUGCGAAUUCUGCUGUAUAUCAC: 0.08.
The same measure for UAGCGGGAGGCCACAGCAGAAGCGUUCACGUCGCAGCCCCUGUCAGAUUCUGGUGAGUCUGCGAAUUCUGCUGUAUAUCUC: 0.67; for UAGCGGGGGGCCACAGCAGAAGCGUUCACGUCGCAGCCCCUGUCAGAUUCUGGUGAAUCUGCGAAUUCUGCUGUAUAUCCC: 0.62.
The same measure for UAGCGGGGGGCCACAGCAGAAGCGUUCACGUCGCAGCCCCUGUUAGAUUCUGGUGAAUCUGCGAAUUCUGCUGUAUAUCUC: 0.49.
For the variant UACCAGGGGGCCACAGCAGAAGCGUUCACGUCGCAGCCCCCGUUAGGUUCUGGUGAAUCUGAGGAUUCUGCUGUAUAUCUC, the self-cleavage worked out at 0.1.
The same measure for UAGCAGGGGGCCGCAGCAGAAGCGAUCACGUCGCAGCCCCUGUCAGAUUCUGGUGUAUCUGCGGACUCUGCAGUAUAUCUC: 0.06; for UAGCGGGGGGCCACAGCAGAAGCGCUCACGACGCAGCCCCCGUCAGAUCCUGGUGAAUCUGCGAAUUCUGCAGUAUAUCUC: 0.25.
The same measure for UAGCAGGGGGCCGCAGCAGAAGCGUUCACGUCUCAGCCCCUGUCAGACUCUGGUGAAUCUGCGAAUUCUGCUGUAUGUCUC: 0.12; for UAGCAGGGGGCCGCAGCAGAAGCGUCCACGUCGCAGCCCCUGUCAGAUUCUGGAGAAUCUGCGAAUUCUGCUGUAUAUCUC: 0.62.

The record behind these values is the RNAGym collection of RNA variant scans (doi:10.1093/nar/gkz1192).
